Test results as given in the supplement of paper PMC4604168 (melanoma cell lines).
Some of the results follow. Repeats are few or missing, and single values can be far off.

Columns and labels:
Experiment in all cases: cell count relative to DMSO control; melanoma cells; higher = more viable cells
Conditions in all cases: library dose: standard library concentration; 72 h
[1] = test system: 501Mel
[2] = test system: A101D
[3] = test system: A2058
[4] = test system: A375
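Note: cells treated in 1,536-well plates, then fixed and DAPI-stained, with nuclei counted from automated high-throughput microscope images.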

Compound	cell count [1]	cell count [2]	cell count [3]	cell count [4]
CCc1ccc(CCOc2ccc(CC3SC(=O)NC3=O)cc2)nc1 (configuration not stated) [pioglitazone] + O=C(Nc1ccccc1)c1cc([N+](=O)[O-])ccc1Cl [GW9662] (first compound 10 µM, partner dose 10 µM)	76%	68.9%	111%	124%
CCc1ccc(CCOc2ccc(CC3SC(=O)NC3=O)cc2)nc1 (configuration not stated) [pioglitazone] + Cn1cc(/C=C2\C(=O)Nc3cccnc32)c2ccccc21 [GW441756] (first compound 10 µM, partner dose 2 µM)	55.2%	103%	106%	173%
CC(C)(C)c1cnc(CSc2cnc(NC(=O)C3CCNCC3)s2)o1 + c1cc(-c2cnn3cc(-c4ccc(OCCN5CCCCC5)cc4)cnc23)ccn1 [Dorsomorphin] (first compound 0.05 µM, partner dose 2 µM)	29.3%	13.6%	27.9%	62.8%
COc1cc2c(Oc3ccc4[nH]c(C)cc4c3F)ncnc2cc1OCCCN1CCCC1 [cediranib] + COc1ccc(-c2ccc3c(N4CCOCC4)nc(N4C[C@@H](C)O[C@@H](C)C4)nc3n2)cc1CO [KU0063794] (first compound 2 µM, partner dose 0.1 µM)	84.7%	92.3%	96.2%	122%
NC(=O)c1ccc(N(C(N)=O)c2c(F)cccc2F)nc1-c1ccc(F)cc1F + COc1cc(N2CCC(N3CCN(C)CC3)CC2)ccc1Nc1ncc(Cl)c(Nc2ccccc2S(=O)(=O)C(C)C)n1 [NVP-TAE684] (first compound 2 µM, partner dose 0.4 µM)	78.4%	87.1%	59.7%	74.6%
Cc1ccc(NC(=O)c2cccc(N(C)C)c2)cc1NC(=O)c1ccc(O)cc1 + Cc1cc([N+](=O)[O-])ccc1NS(=O)(=O)c1cc(Cl)ccc1Cl [FH535] (first compound 10 µM, partner dose 5 µM)	77.2%	60.7%	73.6%	72.7%
CCCCCCCCc1ccc(CCC(N)(CO)CO)cc1 [fingolimod] + CCCCCCCCCCCC1=C(O)C(=O)C=C(O)C1=O [Embelin] (first compound 10 µM, partner dose 6 µM)	0.937%	10.8%	10.1%	76.1%
CCc1ccc(CCOc2ccc(CC3SC(=O)NC3=O)cc2)nc1 (configuration not stated) [pioglitazone] + O=C1NC(=O)/C(=C/c2ccc(-c3ccc(F)cc3O)o2)S1 [AS252424] (first compound 10 µM, partner dose 5 µM)	61.2%	89.7%	94.9%	111%
CN(NC(=O)CC(=O)NN(C)C(=S)c1ccccc1)C(=S)c1ccccc1 + O=c1cc(-c2cccc3c2Sc2ccccc2S3)oc(N2CCOCC2)c1 [KU55933] (first compound 0.03 µM, partner dose 5 µM)	7.44%	58.5%	11.3%	128%
COc1cc2c(Oc3ccc4[nH]c(C)cc4c3F)ncnc2cc1OCCCN1CCCC1 [cediranib] + Oc1nc(-c2ccc(C(F)(F)F)cc2)nc2c1CSCC2 [XAV939] (first compound 2 µM, partner dose 10 µM)	85.1%	101%	77.4%	137%
CCCCCCCCc1ccc(CCC(N)(CO)CO)cc1 [fingolimod] + COC(=O)c1sccc1S(=O)(=O)Nc1ccc(Nc2ccccc2)cc1OC [GSK0660] (first compound 10 µM, partner dose 5 µM)	1.23%	5.89%	4.55%	34.7%
CCCCCCCCc1ccc(CCC(N)(CO)CO)cc1 [fingolimod] + COc1ccc(-c2ccc3c(N4CCOCC4)nc(N4C[C@@H](C)O[C@@H](C)C4)nc3n2)cc1CO [KU0063794] (first compound 10 µM, partner dose 0.1 µM)	1.15%	1.79%	2.76%	24.7%
COc1cc2c(Oc3ccc4[nH]c(C)cc4c3F)ncnc2cc1OCCCN1CCCC1 [cediranib] + Oc1cc(-c2nc(-c3ccccc3)[nH]c2-c2ccncc2)ccc1Cl [L779450] (first compound 2 µM, partner dose 1 µM)	56.3%	78.3%	84.7%	73.9%
CCCCCCCCc1ccc(CCC(N)(CO)CO)cc1 [fingolimod] + Oc1cc(-c2nc(-c3ccccc3)[nH]c2-c2ccncc2)ccc1Cl [L779450] (first compound 10 µM, partner dose 1 µM)	0.597%	4.97%	4.38%	83.7%
CCCCCCCCc1ccc(CCC(N)(CO)CO)cc1 [fingolimod] + Oc1nc(-c2ccc(C(F)(F)F)cc2)nc2c1CSCC2 [XAV939] (first compound 10 µM, partner dose 10 µM)	5.05%	43.8%	72.5%	119%
CCc1ccc(CCOc2ccc(CC3SC(=O)NC3=O)cc2)nc1 (configuration not stated) [pioglitazone] + COc1ccc(COc2ccc(Cc3cnc(N)nc3N)cc2OC)cc1 [GW2580] (first compound 10 µM, partner dose 5 µM)	108%	75.6%	105%	87.4%
CN(NC(=O)CC(=O)NN(C)C(=S)c1ccccc1)C(=S)c1ccccc1 + CCCCCCCCCCCC1=C(O)C(=O)C=C(O)C1=O [Embelin] (first compound 0.03 µM, partner dose 6 µM)	3.09%	74.4%	19.1%	93.8%
COc1cc2c(Oc3ccc4[nH]c(C)cc4c3F)ncnc2cc1OCCCN1CCCC1 [cediranib] + Cc1cc([N+](=O)[O-])ccc1NS(=O)(=O)c1cc(Cl)ccc1Cl [FH535] (first compound 2 µM, partner dose 5 µM)	67.3%	76.9%	83.1%	83.5%
CCCCCCCCc1ccc(CCC(N)(CO)CO)cc1 [fingolimod] + O=S(=O)(c1ccccc1)N(CC(F)(F)F)c1ccc(C(O)(C(F)(F)F)C(F)(F)F)cc1 [T0901317] (first compound 10 µM, partner dose 7 µM)	0.324%	3.8%	3.7%	46.9%
CC(C)(C)c1cnc(CSc2cnc(NC(=O)C3CCNCC3)s2)o1 + Oc1nc(-c2ccc(C(F)(F)F)cc2)nc2c1CSCC2 [XAV939] (first compound 0.05 µM, partner dose 10 µM)	82.9%	77.3%	79.1%	84%
COc1cc2c(Oc3ccc4[nH]c(C)cc4c3F)ncnc2cc1OCCCN1CCCC1 [cediranib] + O=C(O)C(=O)Nc1sc2c(c1C(=O)O)CCNC2 [TCS401] (first compound 2 µM, partner dose 8.33333 µM)	77%	110%	126%	194%
Cc1ccc(NC(=O)c2cccc(N(C)C)c2)cc1NC(=O)c1ccc(O)cc1 + CCc1ccc(CCOc2ccc(CC3SC(=O)NC3=O)cc2)nc1 [pioglitazone] (first compound 10 µM, partner dose 10 µM)	71.7%	86.9%	105%	109%
COc1cc2c(Oc3ccc4[nH]c(C)cc4c3F)ncnc2cc1OCCCN1CCCC1 [cediranib] + CCN(CC)CCCCNc1ncc2cc(-c3cc(OC)cc(OC)c3)c(NC(=O)NC(C)(C)C)nc2n1 [PD173074] (first compound 2 µM, partner dose 0.5 µM)	71.6%	89.6%	99.8%	141%
CN(NC(=O)CC(=O)NN(C)C(=S)c1ccccc1)C(=S)c1ccccc1 + CC(C)CCN1c2nc(Nc3cc(F)c(O)c(F)c3)ncc2N(C)C(=O)C1C [BID1870] (first compound 0.03 µM, partner dose 1 µM)	8.29%	51.4%	17.3%	128%
CN(NC(=O)CC(=O)NN(C)C(=S)c1ccccc1)C(=S)c1ccccc1 + COc1cc(N2CCC(N3CCN(C)CC3)CC2)ccc1Nc1ncc(Cl)c(Nc2ccccc2S(=O)(=O)C(C)C)n1 [NVP-TAE684] (first compound 0.03 µM, partner dose 0.4 µM)	0.672%	54.7%	6.73%	80.9%
CCc1ccc(CCOc2ccc(CC3SC(=O)NC3=O)cc2)nc1 (configuration not stated) [pioglitazone] + O=S(=O)(c1ccccc1)N(CC(F)(F)F)c1ccc(C(O)(C(F)(F)F)C(F)(F)F)cc1 [T0901317] (first compound 10 µM, partner dose 7 µM)	72.6%	92.9%	95.4%	92.3%
CC(C)(C)c1cnc(CSc2cnc(NC(=O)C3CCNCC3)s2)o1 + Cn1cc(/C=C2\C(=O)Nc3cccnc32)c2ccccc21 [GW441756] (first compound 0.05 µM, partner dose 2 µM)	76.1%	83.6%	91.6%	112%
CC(C)(C)c1cnc(CSc2cnc(NC(=O)C3CCNCC3)s2)o1 + CCCCCCCCCCCC1=C(O)C(=O)C=C(O)C1=O [Embelin] (first compound 0.05 µM, partner dose 6 µM)	75.1%	100%	92%	88.7%
